# In PubChem BioAssay (NCATS):
# Several values for one entry are separate records, joined by “and”; a condition that tells them apart may be missing. Equal entries are not always repeated. The shares of active, inactive and inconclusive entries below differ from those in the screen. Potencies beside an inconclusive call are fits to weak or partial responses and may not hold up. Activity calls are given as the source filed them. Calls come from the whole dose curve; as a rule, active = well fitted curve in the direction sought with a large enough effect; inconclusive = small, poorly fitted or top-dose-only effect, or another doubt; inactive = no such curve, though single readings can be large; an effect the other way counts as inactive or inconclusive.
# Columns and labels:
# [1] = qHTS of pediatric cancer cell lines to identify multiple opportunities for drug repurposing: Primary screen for Saos-2 cells (AID 1347097); conditions: Saos-2 viability, CellTiter-Glo ATP luminescence, 48 h; series mostly up to 46 µM; note: nearly all actives have a fitted effect of over 40% in size
# Outline: (§1)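 Cells seeded at 500-1,000 cells/well in growth media, rested 5 hours at 37 degrees C, 5% CO2, then dosed; MIPE compounds at 11-point (from 0.78 nM) and NPC at 8-point (from 0.59 nM) final concentrations. Viability by CellTiter-Glo luminescence after 48 hours.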
# [2] = qHTS of pediatric cancer cell lines to identify multiple opportunities for drug repurposing: Primary screen for LAN-5 cells (AID 1347100); conditions: LAN-5 neuroblastoma viability, CellTiter-Glo luminescence, 48 h; activity change, negative = cytotoxic: at 46 µM (top of the series)
# Outline: (§2)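 Cells (500-1,000/well) rested 5 h, then received compounds for 48 h; metabolically active cells were measured by CellTiter-Glo luminescence. Final concentrations spanned up to 46 µM (MIPE, 11-point) or 0.59 nM-46 µM (NPC, 8-point) in primary screens, 11-point in follow-ups.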
# [3] = qHTS of pediatric cancer cell lines to identify multiple opportunities for drug repurposing: Primary screen for BT-12 cells (AID 1347101); conditions: BT-12 viability, CellTiter-Glo luminescence, 48 h; series mostly up to 57.3 µM; note: nearly all actives have a fitted effect of over 25% in size
# Outline: as §2
# [4] = qHTS of pediatric cancer cell lines to identify multiple opportunities for drug repurposing: Primary screen for RD cells (AID 1347104); conditions: RD rhabdomyosarcoma viability, CellTiter-Glo luminescence, 48 h; series mostly up to 46 µM; note: nearly all actives have a fitted effect of over 55% in size
# Outline: as §1
# [5] = qHTS of pediatric cancer cell lines to identify multiple opportunities for drug repurposing: Primary screen for OHS-50 cells (AID 1347103); conditions: OHS-50 osteosarcoma viability, CellTiter-Glo luminescence, 48 h; series mostly up to 57.3 µM; note: nearly all actives have a fitted effect of over 40% in size
# Outline: as §2
# [6] = qHTS of pediatric cancer cell lines to identify multiple opportunities for drug repurposing: Primary screen for MG 63 (6-TG R) cells (AID 1347105); conditions: MG 63 (6-TG R) viability, CellTiter-Glo, 48 h; activity change, negative = cytotoxic: at 46 µM (top of the series); note: nearly all actives have a fitted effect of over 50% in size
# Outline: as §1
# [7] = qHTS of pediatric cancer cell lines to identify multiple opportunities for drug repurposing: Primary screen for Rh18 cells (AID 1347102); conditions: Rh18 rhabdomyosarcoma viability, CellTiter-Glo luminescence, 48 h; activity change, negative = cytotoxic: at 46 µM (top of the series); note: nearly all actives have a fitted effect of over 65% in size
# Outline: as §2
# [8] = qHTS of pediatric cancer cell lines to identify multiple opportunities for drug repurposing: Primary screen for control Hh wild type fibroblast cells (AID 1347106); conditions: Hh wild-type fibroblast viability, CellTiter-Glo luminescence, 48 h; series mostly up to 46 µM; note: nearly all actives have a fitted effect of over 55% in size
# Outline: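 Cells (500-1,000/well) in growth media were settled 5 h at 37 degrees C, then given compounds for 48 h. Viability was read as CellTiter-Glo luminescence. Primary runs used MIPE at 11 points (0.78 nM-46 µM) and NPC at 8 points (0.59 nM-46 µM); follow-ups used 11 points.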
# [9] = qHTS of pediatric cancer cell lines to identify multiple opportunities for drug repurposing: Primary screen for NB1643 cells (AID 1347099); conditions: NB1643 neuroblastoma viability, CellTiter-Glo luminescence, 48 h; series mostly up to 46 µM; note: nearly all actives have a fitted effect of over 50% in size
# Outline: as §1
# [10] = qHTS of pediatric cancer cell lines to identify multiple opportunities for drug repurposing: Primary screen for SK-N-SH cells (AID 1347098); conditions: SK-N-SH viability, CellTiter-Glo luminescence, 48 h; activity change, negative = cytotoxic: at 57 µM (top of the series); note: nearly all actives have a fitted effect of over 65% in size
# Outline: as §2
# Potency is the fitted concentration of half-maximal effect; tags give direction and shape of the fitted curve.
smiles,measurement,setting,value
O=C(NCC1CN(c2ccc(N3CCOCC3=O)cc2)C(=O)O1)c1ccc(Cl)s1 (stereo not given),Potency,[1],inactive
same,Potency,[2],"inconclusive: 37.2 µM [cytotoxic, single point]"
same,Potency,[3],"inconclusive: 24.6 µM [cytotoxic, single point] and inconclusive: 24.3 µM [cytotoxic, partial curve]"
same,Potency,[4],"inconclusive: 18.7 µM [cytotoxic, partial curve, poor fit]"
CCOc1ccccc1N=Nc1c(C)[nH]n(-c2nc(-c3ccccc3)cs2)c1=O,Potency,[1],"inconclusive: 11.8 µM [cytotoxic, partial curve]"
same,Potency,[2],"inconclusive: 0.662 µM [cytotoxic, full curve]"
same,Potency,[5],"inconclusive: 15.3 µM [cytotoxic, partial curve]"
same,Potency,[4],"inconclusive: 3.32 µM [cytotoxic, partial curve]"
same,Potency,[6],"inconclusive: 18.7 µM [cytotoxic, partial curve]"
NCCCC(O)(P(=O)(O)O)P(=O)(O)O,Potency,[1],"inconclusive: 9.35 µM [cytotoxic, partial curve]"
same,Potency,[3],inactive
CCCCCCCCCCCCCCCC[n+]1ccccc1,Potency,[1],active: 15 µM
same,Potency,[2],active: 13.3 µM
same,Potency,[7],active: 7.5 µM
same,Potency,[6],"inconclusive: 33.5 µM [cytotoxic, single point]"
same,Potency,[8],"inconclusive: 18.8 µM [cytotoxic, single point]"
CCCCc1nc2cc(C=CC(=O)NO)ccc2n1CCN(CC)CC,Potency,[1],active: 0.0296 µM
same,Potency,[9],"inconclusive: 0.0166 µM [cytotoxic, full curve, poor fit]"
same,Potency,[6],active: 3.72 µM
CC#C[C@]1(O)CC[C@H]2[C@@H]3CCC4=CC(=O)CCC4=C3[C@@H](c3ccc(N(C)C)cc3)C[C@@]21C,Potency,[10],"inconclusive: 34.4 µM [cytotoxic, single point] and active: 242 nM"
same,Potency,[9],"inconclusive: 0.209 µM [cytotoxic, full curve, poor fit]"
same,Potency,[2],active: 16.8 µM and active: 209 nM
same,Potency,[3],"inconclusive: 24.6 µM [cytotoxic, partial curve] and active: 685 nM"
same,Potency,[7],"inconclusive: 26.6 µM [cytotoxic, single point] and inconclusive: 526 nM [cytotoxic, full curve]"
same,Potency,[5],"inconclusive: 38.9 µM [cytotoxic, single point] and active: 7.69 µM"
